About 2,200 (0.71%) of roughly 310,000 compounds showed an effect of 50% or more. Effects have a minus sign here. This is one part of the list.

The target in the experiment is human ether-à-go-go-related gene (hERG) potassium channel (human, UniProt Q12809). Description: primary screen, population patch clamp on CHO cells stably expressing hERG.
human ether-à-go-go-related gene (hERG) potassium channel, sequence (Q12809 whole entry, looked up): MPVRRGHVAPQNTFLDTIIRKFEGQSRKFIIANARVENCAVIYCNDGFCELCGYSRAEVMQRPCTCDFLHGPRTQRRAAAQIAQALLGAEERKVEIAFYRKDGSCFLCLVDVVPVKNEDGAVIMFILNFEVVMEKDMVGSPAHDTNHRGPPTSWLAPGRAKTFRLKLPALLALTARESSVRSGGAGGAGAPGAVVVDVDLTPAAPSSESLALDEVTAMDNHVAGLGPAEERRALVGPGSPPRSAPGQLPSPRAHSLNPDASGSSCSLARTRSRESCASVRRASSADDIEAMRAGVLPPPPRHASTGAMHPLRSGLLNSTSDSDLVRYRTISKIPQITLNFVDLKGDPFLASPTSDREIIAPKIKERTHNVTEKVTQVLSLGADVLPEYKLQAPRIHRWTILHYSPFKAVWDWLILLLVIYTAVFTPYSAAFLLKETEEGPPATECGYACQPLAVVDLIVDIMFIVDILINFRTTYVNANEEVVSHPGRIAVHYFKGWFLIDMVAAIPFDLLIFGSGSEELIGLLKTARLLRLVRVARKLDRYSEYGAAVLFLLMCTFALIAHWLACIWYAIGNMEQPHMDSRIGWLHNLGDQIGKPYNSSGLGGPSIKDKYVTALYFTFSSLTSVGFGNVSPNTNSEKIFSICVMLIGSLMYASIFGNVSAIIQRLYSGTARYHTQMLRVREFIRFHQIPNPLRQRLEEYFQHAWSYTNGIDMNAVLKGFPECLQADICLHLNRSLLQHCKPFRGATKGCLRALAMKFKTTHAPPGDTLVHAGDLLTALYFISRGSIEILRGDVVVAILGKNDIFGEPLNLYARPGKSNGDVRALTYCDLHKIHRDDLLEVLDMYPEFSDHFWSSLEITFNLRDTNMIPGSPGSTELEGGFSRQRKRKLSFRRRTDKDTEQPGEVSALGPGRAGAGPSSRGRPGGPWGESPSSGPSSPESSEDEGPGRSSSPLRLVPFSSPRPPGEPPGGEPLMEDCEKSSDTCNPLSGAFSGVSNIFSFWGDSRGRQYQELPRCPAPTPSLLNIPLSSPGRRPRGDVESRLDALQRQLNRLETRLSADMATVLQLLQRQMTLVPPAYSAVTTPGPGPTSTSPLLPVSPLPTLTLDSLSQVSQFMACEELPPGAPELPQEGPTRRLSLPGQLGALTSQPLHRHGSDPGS
On to `O=C1NC(=Nc2ccc(F)cc2)SC1Cc1ccc(F)cc1` (stereo not drawn), for which the “hERG current change (%, negative = inhibition) at 1uM” value is on record as -11.5%.
For the compound `NC(=O)C1=C[C@@H](c2csc3ccccc23)C[C@@H](OCCCCO)O1`, the “hERG current change (%, negative = inhibition) at 1uM” value is listed as 0.321%.
`COc1cccc(NC(=O)c2cc([N+](=O)[O-])ccc2NC(=O)CNCC2CCCO2)c1` (stereo not drawn): the “hERG current change (%, negative = inhibition) at 1uM” value is 5.89%.
For the compound `COc1ccc(C(C(=O)NC2CCCCC2)N(C(=O)c2sc(C)nc2C)c2ccc(C(C)=O)cc2)cc1` (stereo not drawn), the “hERG current change (%, negative = inhibition) at 1uM” value is 13.8%.
For `COc1ccc(C=NCC2OCCc3ccccc32)cc1OC` (stereo not drawn) the value was 6.7%.
The value for `CCOC(=O)c1ccc(NC(=O)CSc2nc(=O)n3cccc(C)c3n2)cc1` was 15.7%; that for `CC(CC(=O)Nc1ccccc1)n1ccnc1` (stereo not drawn) was -1.99%.
Turning to `Cc1cc2c(NCC(C)O)ncnc2s1` (stereo not drawn), the “hERG current change (%, negative = inhibition) at 1uM” value was 18.6%.
On to `O=C(CN(C(=O)c1csnn1)c1cccc2ccccc12)NC1CCCC1`, for which the “hERG current change (%, negative = inhibition) at 1uM” value is 6.43%.
For `O=C(O)COc1ccccc1/C=N/NC(=O)/C(=C\c1ccc2c(c1)OCO2)NC(=O)c1ccccc1` the value was 8.44%; for `COc1cccc2cc(C(C)N(CCCN3CCOCC3)C(=S)Nc3ccc(C)c(C)c3)oc12` (stereo not drawn), 12.1%; for `O=C(Cn1nnc(-c2ccccc2F)n1)Nc1cccc2ncccc12`, 10.8%.
Consider `CCCc1cc(=O)[nH]c(SCc2cccnc2)n1`, for which the “hERG current change (%, negative = inhibition) at 1uM” value turned out to be 2.98%.
`CC1Cc2ccccc2N1c1ncnc2c1nnn2Cc1ccccc1Cl` (stereo not drawn): the “hERG current change (%, negative = inhibition) at 1uM” value is 12.3%.
The value for `Cc1ccc(CS(=O)(=O)Cc2ccc(C(=O)NCc3cccnc3)o2)cc1` was 3.15%; that for `O=C(NCCO)c1ccc2[nH]c3ccccc3c2c1` was 12.7%; that for `O=C(CCN1C(=O)c2ccccc2C1=O)Nc1cccc(S(=O)(=O)N2CCCCC2)c1` was 10.5%.
For the compound `COc1ccc(-c2c3c(=O)n(C)c(=O)n(C)c3cn2-c2ccccc2)cc1`, the “hERG current change (%, negative = inhibition) at 1uM” value is given as 11.3%.
The value for `O=C(Cn1nc(-c2ccc(Cl)cc2)ccc1=O)NCc1ccc2c(c1)OCO2` was 12.6%; that for `CN(C)CCCn1cnc2c(c1=N)C(c1ccccc1)c1ccc3ccccc3c1O2` (stereo not drawn) was -61.9%; that for `CC1CCCN(C(=O)C2CCN(C(=O)Nc3ccccc3)CC2)C1` (stereo not drawn) was 2.01%.
For `Cc1ccc(-n2nnnc2SCC(=O)Nc2c(C)n(C)n(-c3ccccc3)c2=O)cc1` the value was 9.64%; for `CCOc1cc(/C=C2/C(=N)N3N=C(C)SC3=NC2=O)ccc1OS(=O)(=O)c1ccc(C)cc1`, 11.3%.
For `COc1ccc(C(=O)N2CCN(C)C(C)C2)cc1OC1CCN(C(C)=O)CC1` (stereo not drawn) the value was 14.7%; for `O=C(/C=C/c1ccco1)NCc1ccccn1`, 4.92%.
Take `Cc1ccc(Nc2nc3ccccc3nc2Nc2c(C)n(C)n(-c3ccccc3)c2=O)cc1`: the “hERG current change (%, negative = inhibition) at 1uM” value is on record as 0.207%.
The value for `CC(C)(C)n1nc2c(c1NC(=O)Cc1ccc([N+](=O)[O-])cc1)CS(=O)(=O)C2` was 1.17%; that for `COCCNc1nnc(SCC(=O)N2CCN(S(=O)(=O)c3ccccc3)CC2)s1` was -3.27%; that for `O=S(=O)(NC1=NCCC1)c1ccc(F)cc1F` was 4.09%.
For `CC[N+]1(C)CCC(=C2c3ccccc3CC(=O)c3sccc32)CC1.[Br-]` (stereo not drawn), the “hERG current change (%, negative = inhibition) at 1uM” value is given as 5.25%.
For `Cc1cc(=O)[nH]c(N/N=C/c2c(C)oc3ccccc23)n1` the value was 10.1%; for `CC(=O)Nc1ccc(S(=O)(=O)NCCC(=O)Nc2ccc(C)c(Cl)c2)cc1`, 3.79%; for `Cc1ccc2cc(-c3noc(C(C)(C)C)n3)c(=O)[nH]c2c1`, -10.3%.
For `O=C(CN1CCN(c2ccc(O)cc2)CC1)Nc1cc(S(=O)(=O)N2CCCCC2)ccc1Cl` the value was -1.41%; for `FC(F)(F)c1ccc(NC2=NCCC2)cc1`, 6.85%; for `CCn1c(SCC(=O)NC(=O)c2ccccc2OC)nc2ccccc21`, -36.8%.
For `CCN(CC)CCOC(=O)c1ccc(Cl)cc1Cl.Cl` the value was -8.41%; for `CCOS(=O)(=O)[O-].CC[n+]1c(/C=C/Nc2ccccc2)oc2ccc(OC)cc21`, -68.8%.
As for `CCOc1ccc(NN=C(C(=O)OC)C(=O)OC)c([N+](=O)[O-])c1`, the “hERG current change (%, negative = inhibition) at 1uM” value came to 14.3%.
The value for `c1ccc2c(c1)nc(N1CCOCC1)c1c3ccccc3[nH]c21` was 13.7%; that for `CCc1cc2cc(C)c(C)cc2nc1SCC(=O)NNC(=O)c1ccco1` was 17%.
The value for `C=CCOc1nc2c(c(=O)n(C)c(=O)n2C)n1Cc1ccc(Cl)cc1Cl` was -3.59%; that for `O=C(c1cccc([N+](=O)[O-])c1)N1CCCC(C(=O)N2CCCCCC2)C1` (stereo not drawn) was 9.57%; that for `CC(OC(=O)C1=COCCO1)C(=O)Nc1cccc(S(=O)(=O)N2CCOCC2)c1` (stereo not drawn) was 10.6%.
The value for `NC(=O)c1ccc(-n2nnnc2SCC(=O)Nc2ccccc2)cc1` was 17.5%.
As to `CC(=O)C1=C(O)C(=O)N(c2ccc(O)cc2)C1c1ccccc1` (stereo not drawn), the “hERG current change (%, negative = inhibition) at 1uM” value came out at 13.8%.
In the case of `C/C(=N\NC(=O)c1cc(O)ccc1O)c1cccc(NC(=O)c2cccc(Cl)c2)c1`, the “hERG current change (%, negative = inhibition) at 1uM” value turned out to be 16.4%.
For `Cc1cc(C(=O)NC(C)c2ccccc2)c2cc(F)ccc2n1` (stereo not drawn) the value was 0.885%; for `Oc1ccccc1CNc1ncc(Br)cc1Br`, 7.43%.
On to `O=C(NC1CCCCC1)C1CCCN1S(=O)(=O)c1ccc(F)cc1` (stereo not drawn), for which the “hERG current change (%, negative = inhibition) at 1uM” value was found to be 9.38%.
As for `O=C(O)c1cc(C2CC2)nc2ccccc12`, the “hERG current change (%, negative = inhibition) at 1uM” value is recorded as 6.09%.
Turning to `O=c1[nH]cccc1-c1nc2ccccc2n1Cc1ccc(Cl)cc1`, the “hERG current change (%, negative = inhibition) at 1uM” value is 5.27%.
The value for `O=C(COC(=O)c1cc[n+]([O-])cc1)Nc1ccc([N+](=O)[O-])cc1` was 14.1%; that for `C/C=C\C=C\C(=O)Nc1cccc(C2=NOC3(C2)C[C@H](C(N)=O)N(C(=O)c2ccccc2C(=O)c2ccccc2)C3)c1` (stereo partly drawn) was -8.75%.
The value for `O=C(COc1ccccc1)N1CCN(C(=O)Cc2ccccc2)CC1` was 4.27%.
The value for `Cc1cc(C)cc(Oc2nc(-c3ccccc3)cc(C)c2S(C)(=O)=O)c1` was 3.23%.
`Cc1ccc(C(=O)NCc2ccccc2CN2CCCC2)cc1S(=O)(=O)N1CCOCC1`: the “hERG current change (%, negative = inhibition) at 1uM” value was -18.1%.
As for `CC(=O)NCC(=O)NC1CCCc2c1cnn2-c1ccccc1F` (stereo not drawn), the “hERG current change (%, negative = inhibition) at 1uM” value is on record as 15.3%.
For `COCCn1c(C)cc(C(=O)COc2ccc(N(C)S(=O)(=O)c3ccc(C)cc3)cc2)c1C` the value was -1.25%; for `COCCN1C(=O)N(c2ccccc2)C(=O)C1CC(=O)Nc1cc(OC)cc(OC)c1` (stereo not drawn), 12.7%; for `Cn1c(=O)cc(SCC(=O)NCCC2=CCCCC2)c2ccccc21`, 1.32%.
In the case of `CC1(C)CC(=O)C2=C(C1)Nc1cc3c(cc1C2c1ccc(F)cc1)OCO3` (stereo not drawn), the “hERG current change (%, negative = inhibition) at 1uM” value is recorded as -37%.
Consider `Cc1c(C#N)c(NC(=O)CCl)n(Cc2cccs2)c1C`, for which the “hERG current change (%, negative = inhibition) at 1uM” value is listed as 4.25%.
As to `O=C(NCC(c1cccnc1)N1CCN(c2ccc(F)cc2)CC1)c1cccc(Cl)c1` (stereo not drawn), the “hERG current change (%, negative = inhibition) at 1uM” value is -18.3%.
Take `CCOC(=O)N1CCC2(CC1)NCCc1c2[nH]c2ccccc12`: the “hERG current change (%, negative = inhibition) at 1uM” value was 10.4%.
The value for `COc1cccc(CNCCO)c1OCc1ccccc1Cl.Cl` was 5.91%; that for `COc1ccc(CCNC(=O)C(C(=O)c2ccccc2)n2ccccc2=O)cc1OC` (stereo not drawn) was 0.22%.
Consider `O=C(c1ccc(S(=O)(=O)Nc2ccccc2)cc1)N1CCOCC1`, for which the “hERG current change (%, negative = inhibition) at 1uM” value came to 9.89%.
The value for `CC(=O)Nc1ccc(S(=O)(=O)N(Cc2cc3ccc(C)cc3[nH]c2=O)CC2CCCO2)cc1` (stereo not drawn) was 14%.
For `Cc1c(NC(=O)CSCc2ccc(Br)cc2)c(=O)n(-c2ccccc2)n1C` the value was 7.74%.
The value for `Cc1ccc(NC(=S)NCc2ccc(Cl)cc2)c(C)c1` was 9.07%.
For the compound `O=C1N(Cc2cccnc2)C[C@@H]2C[C@@H](c3ccccc3C(F)(F)F)N3CCC[C@@]123`, the “hERG current change (%, negative = inhibition) at 1uM” value is 4.66%.
For `CC(=O)c1ccc(NC(=O)Cn2cnc(S(=O)(=O)N3CCc4ccccc43)c2)cc1` the value was 15%.
The value for `COc1ccc(OC)c(NC(=O)CSc2nncc3ccccc23)c1` was 13.1%.
For `Cc1ccccc1C(=O)Nn1cnnc1`, the “hERG current change (%, negative = inhibition) at 1uM” value was 12.2%.
For the compound `CCCC(C(=O)NC1CCCC1)N(Cc1ccc2c(c1)OCO2)C(=O)c1snc(C(N)=O)c1N` (stereo not drawn), the “hERG current change (%, negative = inhibition) at 1uM” value was 9.52%.
Turning to `Cc1c(C)c2cc(Cl)c(OCC(=O)NC3CC(C)(C)NC(C)(C)C3)cc2oc1=O`, the “hERG current change (%, negative = inhibition) at 1uM” value is 6.59%.
Turning to `COC(=O)CCCC1=CC2=C(c3ccccc3)C(=O)C(C)(OC(=O)C3CCCC3)C(=O)C2=CN1c1ccc(OC)cc1` (stereo not drawn), the “hERG current change (%, negative = inhibition) at 1uM” value was -3.18%.
For `COc1ccc(C(C(=O)NC2CCCC2)N(C(=O)c2ccco2)c2ccccc2C(C)=O)cc1OC` (stereo not drawn) the value was 7.35%.
The value for `O=C1c2cccc3c([N+](=O)[O-])ccc(c23)C(=O)N1c1ccccn1` was 10.6%; that for `CCCCNC(=O)c1cn(CC(C)C)c(=O)c2c1c1ccccc1n2C` was 15.7%.
Take `Cc1ccc(S(=O)(=O)N2CCN(C)CC2)c(C)c1N(C)S(=O)(=O)c1ccc(Cl)cc1`: the “hERG current change (%, negative = inhibition) at 1uM” value is recorded as -33.3%.
The value for `COC(=O)CCC(=O)c1oc2ccccc2c1NC(=O)CCCN1C(=O)c2ccccc2C1=O` was 4.94%; that for `Cc1cc(C)c(NC(=O)C2CCCN2C(=O)NC2CCCCC2)c(C)c1` (stereo not drawn) was 2%.

Values taken from article PMC4336329 (PLoS ONE, 2015).
